# Assay results as given in the supplement of paper PMC4604168 (melanoma cell lines).
# The list shows a part of the results. Many values rest on one well or one pass, so single values are uncertain.
# System: IPC-298
# Test: cell count relative to DMSO control; melanoma cells; higher = more viable cells
# Conditions: library dose: low library concentration; 72 h
# 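Further: cell number obtained by counting DAPI-stained nuclei in high-throughput microscope images with image analysis software, screen run in 1,536-well plates.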
row,SMILES,cell count [%]
1,"C[C@@H](Oc1cc(-c2cnn(C3CCNCC3)c2)cnc1N)c1c(Cl)ccc(F)c1Cl [Crizotinib] + CO[C@H]1C[C@@H]2CC[C@@H](C)[C@@](O)(O2)C(=O)C(=O)N2CCCC[C@H]2C(=O)O[C@H]([C@H](C)C[C@@H]2CC[C@@H](OCCO)[C@H](OC)C2)CC(=O)[C@H](C)/C=C(\C)[C@@H](O)[C@@H](OC)C(=O)[C@H](C)C[C@H](C)/C=C/C=C/C=C/1C [everolimus] (first compound 0.2 µM, partner dose 0.02 µM)",72.6
2,"CN1CCN(c2ccc3nc(-c4c(N)c5c(F)cccc5[nH]c4=O)[nH]c3c2)CC1 [Dovitinib] + CC(=O)c1c(C)c2cnc(Nc3ccc(N4CCNCC4)cn3)nc2n(C2CCCC2)c1=O [palbociclib] (first compound 0.1 µM, partner dose 0.04 µM)",89.2
3,"CS(=O)(=O)CCNCc1ccc(-c2ccc3ncnc(Nc4ccc(OCc5cccc(F)c5)c(Cl)c4)c3c2)o1 [lapatinib] + C#Cc1cccc(Nc2ncnc3cc(OCCOC)c(OCCOC)cc23)c1 [erlotinib] (first compound 0.8 µM, partner dose 0.8 µM)",86.9
4,"C[C@@H](Oc1cc(-c2cnn(C3CCNCC3)c2)cnc1N)c1c(Cl)ccc(F)c1Cl [Crizotinib] + CN1CCN(c2ccc3nc(-c4c(N)c5c(F)cccc5[nH]c4=O)[nH]c3c2)CC1 [Dovitinib] (first compound 0.2 µM, partner dose 0.1 µM)",98.5
5,"CS(=O)(=O)CCNCc1ccc(-c2ccc3ncnc(Nc4ccc(OCc5cccc(F)c5)c(Cl)c4)c3c2)o1 [lapatinib] + OCc1c[nH]c2ccccc12 [Indole-3-carbinol] (first compound 0.8 µM, partner dose 0.8 µM)",88.9
6,"CNC(=O)c1cc(Oc2ccc(NC(=O)Nc3ccc(Cl)c(C(F)(F)F)c3)cc2)ccn1 [sorafenib] + C#Cc1cccc(Nc2ncnc3cc(OCCOC)c(OCCOC)cc23)c1 [erlotinib] (first compound 0.4 µM, partner dose 0.8 µM)",87.9
7,"C=CCNC1=C2C[C@@H](C)C[C@H](OC)[C@H](O)[C@@H](C)/C=C(\C)[C@H](OC(N)=O)[C@@H](OC)/C=C\C=C(/C)C(=O)NC(=CC1=O)C2=O [Tanespimycin] + Cn1c(Nc2ccc(C(F)(F)F)cc2)nc2cc(Oc3ccnc(-c4ncc(C(F)(F)F)[nH]4)c3)ccc21 [CHIR265] (first compound 0.002 µM, partner dose 0.08 µM)",66.6
8,"CN1CCN(c2ccc3nc(-c4c(N)c5c(F)cccc5[nH]c4=O)[nH]c3c2)CC1 [Dovitinib] + OCc1c[nH]c2ccccc12 [Indole-3-carbinol] (first compound 0.1 µM, partner dose 0.8 µM)",101
9,"CNC(=O)c1cc(Oc2ccc(NC(=O)Nc3ccc(Cl)c(C(F)(F)F)c3)cc2)ccn1 [sorafenib] + CS(=O)(=O)CCNCc1ccc(-c2ccc3ncnc(Nc4ccc(OCc5cccc(F)c5)c(Cl)c4)c3c2)o1 [lapatinib] (first compound 0.4 µM, partner dose 0.8 µM)",90.4
10,"CN1CCN(c2ccc3nc(-c4c(N)c5c(F)cccc5[nH]c4=O)[nH]c3c2)CC1 [Dovitinib] + CS(=O)(=O)CCNCc1ccc(-c2ccc3ncnc(Nc4ccc(OCc5cccc(F)c5)c(Cl)c4)c3c2)o1 [lapatinib] (first compound 0.1 µM, partner dose 0.8 µM)",96.1
11,"CNC(=O)c1cc(Oc2ccc(NC(=O)Nc3ccc(Cl)c(C(F)(F)F)c3)cc2)ccn1 [sorafenib] + Nc1nc(F)nc2c1ncn2[C@@H]1O[C@H](CO)[C@@H](O)[C@@H]1O [fludarabine] (first compound 0.4 µM, partner dose 0.2 µM)",87.2
12,"CNC(=O)c1cc(Oc2ccc(NC(=O)Nc3ccc(Cl)c(C(F)(F)F)c3)cc2)ccn1 [sorafenib] + COc1ccc(Cl)c(Nc2nc3ccccc3nc2NS(=O)(=O)c2cccc(NC(=O)C(C)(C)N)c2)c1 [XL147] (first compound 0.4 µM, partner dose 0.8 µM)",94.4
13,"CS(=O)(=O)CCNCc1ccc(-c2ccc3ncnc(Nc4ccc(OCc5cccc(F)c5)c(Cl)c4)c3c2)o1 [lapatinib] + C=C(c1ccc(C(=O)O)cc1)c1cc2c(cc1C)C(C)(C)CCC2(C)C [Bexarotene] (first compound 0.8 µM, partner dose 2 µM)",98.9
